# Test results taken from PubChem BioAssay AID1347073 (National Center for Advancing Translational Sciences (NCATS), 2019).
# Hit rate of the full screen: of about 45,000 compounds, about 200 (0.44%) were called active. About 7% were inconclusive and are not listed. The call rests on the fitted dose curve; in most records, active means well fitted activation curve with a large enough effect; inconclusive means small, poorly fitted or top-dose-only effect; inactive means no such curve, though single readings can be large or run the other way. The list shows a part of the results.
# Experiment: qHTS of TDP-43 Inhibitors: NCGC Sytravon Library Screen; further: 0% is about no effect; nearly all actives have a fitted effect of over 55% in size
# Settings: yeast TDP-43 toxicity rescue, BacTiter-Glo growth, 24 h; series mostly up to 46.1 µM; growth rescue (activation): at the top concentration
# Outline: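 TDP-43-expressing yeast, pregrown in raffinose, seeded at OD600 0.02 in galactose medium with compound for 24 hr at 30 deg C. Growth read by BacTiter-Glo luminescence, so rescue of toxicity appears as activation.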
row,SMILES,growth rescue (activation)
1,CC(=O)NN1C(=O)c2ccccc2NC1c1ccccc1 (stereo unspecified),inactive: -19.6%
2,COc1ccc(Cl)cc1NC(=O)CN1CCN(S(=O)(=O)N2CCC(C)CC2)CC1,inactive: 17.3%
3,CN1CCC(N(C)C(=O)c2cccc(S(=O)(=O)N3CCc4ccccc43)c2)CC1,inactive: 2.54%
4,N#Cc1ccc(C(=O)Nc2cc(S(=O)(=O)Nc3ccc(Cl)cc3)ccc2N2CCCCC2)cc1,inactive: -14%
5,CCOC(=O)c1cc(OC)c2cccc(CN3CCC(C)(C(=O)NCCOC)C3)c2c1 (stereo unspecified),inactive: 4.41%
6,COc1cc(/C=c2\s/c(=C\C(=O)C(C)(C)C)[nH]c2=O)cc(OC)c1OC,inactive: 17.4%
7,CCN1CCN(c2ccc(NC(=O)COc3ccc([N+](=O)[O-])cc3)cc2)CC1,inactive: 3.03%
8,O=[N+]([O-])c1cccc(-c2nnc3ccc4ccccc4n23)c1,inactive: 9.9%
9,C=CCSc1nc2sc3c(c2c(=O)[nH]1)CC(C)(CC)OC3 (stereo unspecified),inactive: 9.96%
10,Cc1ccc(NC(=O)c2ccc(S(=O)(=O)N3CCOCC3)cc2)cc1,inactive: 11%
11,CCOc1ccc(-n2c(-c3ccc(Br)cc3)c[n+]3c2CCCCC3)cc1,inactive: 0.836%
12,Cc1ccc2c(c1)N(CC(=O)NCCCN1CCOCC1)C(=O)C(C(C)C)O2 (stereo unspecified),inactive: -17.5%
13,CN1CCC(=NNc2ccc(S(=O)(=O)N3CCOCC3)cc2[N+](=O)[O-])CC1,inactive: 7.86%
14,CC(C(=O)N1CCCCC1)n1sc2ccccc2c1=O (stereo unspecified),inactive: 5.43%
15,O=C(COc1ccccc1Cl)Nc1ccc(CN2CCCCC2)cc1,inactive: -1.8%
16,Cc1ccc(Cl)cc1NC(=O)c1ccc(Cn2cc(Cl)cn2)cc1,inactive: 22.6%
17,CC1CCN(C(=O)COc2ccc(S(=O)(=O)N3CCCC3)cc2)CC1,inactive: 3.35%
18,O=C(Cc1ccsc1)Nc1ccccc1F,inactive: 11.7%
19,O=C(CN(C(=O)c1csnn1)c1cccc2ccccc12)NCc1ccc(F)cc1,inactive: 0.186%
20,CN(C)/C=C/C1=C([N+](=O)[O-])C(c2cccc([N+](=O)[O-])c2)NC(=O)N1 (stereo unspecified),inactive: 10.4%
21,COc1ccccc1NC(=O)NC1(C)CCS(=O)(=O)C1 (stereo unspecified),inactive: 17.6%
22,CCN(CC(=O)Nc1ccc(C(=O)OC)cc1)C1CCCCC1,inactive: 16%

row,SMILES,growth rescue (activation)
1,Cc1ccccc1-n1ncc2c1CC(C)(C)CC2NC(=O)C1=CC(=O)CC(C)(C)O1 (stereo unspecified),inactive: 18.6%
2,COc1ccc(NC(=O)CCNS(=O)(=O)c2ccc(C)c(C)c2)cc1OC,inactive: 2.19%
3,O=c1nc(Nc2ccc([N+](=O)[O-])cc2)[nH]c(=O)[nH]1,inactive: 12.7%
4,CN(CCCN1CCOCC1)C(=O)c1cc(COc2c(F)cccc2F)on1,inactive: -1.49%
5,CC(=O)NN1C(=O)c2ccccc2NC1c1ccccc1O (stereo unspecified),inactive: -15.5%
6,O=c1c2oc3ccccc3c2ncn1Cc1cccc(Cl)c1,inactive: -8.12%
7,Cc1cccc(C(=O)Nc2nnc(COc3ccccc3)s2)c1,inactive: 12%
8,COc1ccc(CC(=O)OCC(=O)NCc2ccc(C)cc2)cc1OC,inactive: 23.4%
9,Cc1ccc(C(=O)c2ccccc2C(=O)OCC(=O)NCCc2ccccc2)cc1,inactive: 25.5%
10,CC(=O)c1ccc(NC(=O)C(C)Sc2nnc(-c3ccncc3)n2C2CC2)cc1 (stereo unspecified),inactive: 10.6%
11,Cc1cnc(C(=O)Nc2cccc(S(=O)(=O)N(C)C)c2)cn1,inactive: 4.97%
12,Cc1cc(C=O)c(C)n1-c1cc(C(F)(F)F)ccc1N1CCOCC1,inactive: 22.4%
13,COc1ccc(OC)c(NC(=O)C2C(C(=O)O)C3(Cl)C(Cl)=C(Cl)C2(Cl)C3(Cl)Cl)c1 (stereo unspecified),inactive: -9.37%
14,CCCc1cc(=O)[nH]c(Nc2ccc(OCC)cc2)n1,inactive: 14.8%
15,Cc1nc(NC(=O)COC(=O)C2CC3CCCC(C2)C3=O)c(Cl)cc1Cl (stereo unspecified),inactive: 19.7%
16,CCCCOc1ccc(C2CC(=O)N(C)C2=O)cc1 (stereo unspecified),inactive: -1.38%
17,Cc1ccsc1/C=N\Nc1cn[nH]c(=O)c1Cl,inactive: -3.04%
18,COc1cc(C)ccc1OCCOc1c(C)cc(Cl)cc1Cl,inactive: 8.2%
19,Cc1ccc(S(=O)(=O)NCCNC(=O)c2ccc(C)nc2)cc1,inactive: -0.319%
20,Cc1ccccc1C(=O)N1CCN(c2ccc(NC(=O)c3ccc([N+](=O)[O-])o3)cc2)CC1,inactive: -6%
21,O=C(Nc1cccnc1)C1(c2ccccc2)CCCC1,inactive: 39.3%
22,COc1ccccc1C(=O)NC(=S)Nc1ccc(NC(=O)c2ccco2)cc1,inactive: 8.01%

row,SMILES,growth rescue (activation)
1,O=C(CSc1nc2ccccc2[nH]1)NCCc1ccc(Cl)cc1,inactive: -7.48%
2,CN1C(=O)/C(=C/c2cc3c(cc2Br)OCO3)NC1=S,inactive: 9.06%
3,Cc1sc2ncnc(N[C@@H](Cc3ccccc3)C(=O)O)c2c1C,inactive: -11%
4,Oc1ccc(N2CCN(c3nc(-c4cccs4)nc4ccccc34)CC2)cc1,inactive: 21.8%
5,CN(CCc1cn[nH]c1)Cc1nc(C(c2ccccc2)c2ccccc2)no1,inactive: 9.8%
6,O=C(Nc1cccnc1)C1Cc2c(-c3cccc(F)c3)ccnc2O1 (stereo unspecified),inactive: 7.71%
7,CCOC(=O)CNC(=O)C1(/C=C/c2ccccc2)CC(=O)N1c1ccc(OC)cc1 (stereo unspecified),inactive: -4.3%
8,Cc1ccc(C(=O)Nc2nc3ccc(S(C)(=O)=O)cc3s2)cc1C,inactive: 0.677%
9,CC1=C(C(=O)NCc2ccccc2)C(c2cccnc2)n2ncnc2N1 (stereo unspecified),inactive: 5.07%
10,Cc1ccc(/C([O-])=C(/C(=S)NCc2ccccc2)[n+]2cccc(CO)c2)cc1[N+](=O)[O-],inactive: -2.92%
11,CCn1nc(C(=O)NNS(=O)(=O)c2cc(/C=C/C(=O)O)cc(OC)c2OC)c2ccccc2c1=O,inactive: 22.6%
12,COC(=O)CSc1ccc(S(=O)(=O)N2CCOCC2)cc1[N+](=O)[O-],inactive: 19.2%
13,CC1CCCN(C(=O)CN2C(=O)C(C)Oc3ccccc32)C1 (stereo unspecified),inactive: 6.62%
14,O=C(NCC(=O)N1CCN(S(=O)(=O)/C=C/c2ccccc2)CC1)c1ccc(Cl)cc1,inactive: -2.05%
15,O=C(NC1CCCCC1)C(c1ccco1)N(C(=O)c1csnn1)c1cccc(F)c1 (stereo unspecified),inactive: -2.6%
16,O=C(CCc1c[nH]c2ccccc12)N1CCCC1,inactive: 7.82%
17,CC(C)c1cc(=O)n2[nH]c(N)nc2n1,inactive: -22.8%
18,CN(C(=O)c1ccc(N2CCCCC2)c([N+](=O)[O-])c1)C1CCS(=O)(=O)C1 (stereo unspecified),inactive: 6.19%
19,CC1CCN(c2c(NCc3ccc(C(=O)NCc4ccccc4)cc3)c(=O)c2=O)CC1,inactive: 0.0613%
20,Cc1ccc2nc(Nc3nc(C)cc(-c4ccccc4)n3)[nH]c(=O)c2c1,inactive: 5.72%
21,Cc1nn(C)cc1C(=O)Nc1ccc2c(c1)OCCO2,inactive: -2.27%
22,COc1ccccc1NC(=O)c1ccc(NS(=O)(=O)c2ccc(F)c(Cl)c2)cc1,inactive: 11.7%

row,SMILES,growth rescue (activation)
1,CC(C)OC(=O)CC1C(=O)NCCN1C(=S)NC(=O)c1ccccc1Cl (stereo unspecified),inactive: -25.1%
2,Cc1csc(NC(=S)NC(=O)c2ccccc2)n1,inactive: 10.3%
3,Cc1[nH][nH]c(=O)c1C(c1ccc(-c2cccc(Cl)c2)o1)c1c(C)[nH][nH]c1=O,inactive: 26.6%
4,Cc1cc(-c2ccccc2)nc(SCC(=O)N2CCCC2)n1,inactive: 2.97%
5,CCN(CC)S(=O)(=O)c1cccc(NC(=O)CN2C(=O)NC3(CCC(C)CC3)C2=O)c1 (stereo unspecified),inactive: 22.4%
6,CCN(C(=O)c1nn(-c2ccc(OC)cc2)c(=O)c2c1c1ccccc1n2C)c1ccc(OC)cc1,inactive: 4.81%
7,CCc1cccc(CC)c1NC(=O)COC(=O)c1ccc(F)c(S(=O)(=O)N(CC)CC)c1,inactive: -3.01%
8,CC(=O)Nc1ccc(-c2csc(N/N=C(/C)c3ccccc3)n2)cc1,inactive: 11.7%
9,CCc1ccc(C(=O)COC(=O)CNC(=O)COc2ccccc2)cc1,inactive: 6.1%
10,O=C(NCC1CC1)c1ccc2sc([C@H]3C[C@H](O)[C@@H](CO)O3)nc2c1,inactive: 3.66%
11,O=C(CCCOc1ccc(Cl)cc1Cl)NCCCn1ccnc1,inactive: -1.15%
12,O=S(=O)(c1ccc(NC(=S)NCCc2ccccc2)cc1)N1CCOCC1,inactive: 10.9%
13,COc1cc([N+](=O)[O-])ccc1NC(=S)N1CCN(c2ccccn2)CC1,inactive: -8.42%
14,CCN1CCN(C(=O)CN(C)S(=O)(=O)c2cc(C)ccc2OC)CC1,inactive: -12.7%
15,O=C(CSCc1ccc(Cl)cc1)N/N=C/c1ccco1,inactive: 13.1%
16,COc1ccc(C(CC(=O)O)NC(=O)Cc2ccccc2)cc1OC (stereo unspecified),inactive: -9.79%
17,O=C(NC1CCN(C(=O)Nc2cccc(Cl)c2)CC1)c1ccccc1,inactive: 8.61%
18,O=C(NNC(=S)NC(=O)c1cccc([N+](=O)[O-])c1)c1ccc(Br)cc1,inactive: 5.84%
19,Cc1ccccc1C(=O)NCCCc1ccccc1,inactive: 26.1%
20,O=c1[nH]ncn2cccc12,inactive: 8.85%
21,COc1ccc(OC)c(Cc2nnc(CCC(=O)NCc3ccsc3)o2)c1,inactive: 10.1%
22,CCOC(=O)N1CCN(CC(=O)Nc2ccc(Oc3ccccc3)cc2)CC1,inactive: 35.9%

row,SMILES,growth rescue (activation)
1,O=C(CN1C(=O)CCC1=O)NC(=O)NC1CCCC1,inactive: 2.5%
2,Cc1ccc(-n2c(SCc3ccc(C(=O)O)cc3)nnc2-c2ccncc2)cc1,inactive: -10.3%
3,CCOC(=O)c1cccc(NC(=O)CCn2cccc2)c1,inactive: 1.61%
4,Cc1cc(=O)[nH]c(SCC(=O)c2ccc(O)c(O)c2)n1,inactive: -3.87%
5,O=C(CN1C(=O)C2CCCCC2C1=O)Nc1ccccc1C(=O)O (stereo unspecified),inactive: 3.59%
6,CCc1nc2ccc(C(=O)N(C)CCN(C)C)cn2c1N(C)Cc1cc2ccccc2s1,inactive: -7.07%
7,CCN(CC(=O)NC1CCS(=O)(=O)C1)S(=O)(=O)c1ccc(C)c(C)c1 (stereo unspecified),inactive: -33.9%
8,N#Cc1nc(-c2ccccc2F)oc1NCCc1ccccn1,inactive: 37.7%
9,O=C(CSc1nc(-c2ccc(F)cc2)nc2ccc(F)cc12)Nc1cccc(C(=O)O)c1,inactive: 22.2%
10,COc1ccccc1NC(=O)c1ccc(NC(=O)COC(=O)CC(NC(=O)c2ccccc2Cl)c2ccccc2)cc1 (stereo unspecified),inactive: 15.2%
11,Cn1ccnc1SCC(=O)c1c(N)n(C)c(=O)n(C)c1=O,inactive: 4.03%
12,Cn1nnnc1SCc1csc(C2C(C#N)=C(N)OC3=C2C(=O)CCC3)c1 (stereo unspecified),inactive: 8.3%
13,O=C(N/N=C/c1cn(-c2cccs2)nc1-c1ccccc1)c1ccc(O)cc1,inactive: -18.9%
14,NC(=S)N/N=C/c1cccc(O)c1O,inactive: 16.2%
15,CCS(=O)(=O)c1ncc(Cl)c(C(=O)NCc2ccccc2)n1,inactive: -4.3%
16,Cc1[nH]c2ccccc2c1C(=O)CN1CCN(c2ccc(Cl)cc2)CC1,inactive: -1.56%
17,CC(C)c1ccc(NC(=O)c2cc(-c3cc(F)ccc3OCC3CCCO3)n[nH]2)cc1 (stereo unspecified),inactive: 21.9%
18,COc1ccc(CNC(=O)CNS(=O)(=O)c2cccc(C#N)c2)cc1OC,inactive: 4.66%
